# Measured values reported in patent US20250296996A1, “ANGIOPOIETIN-RELATED PROTEIN 7-SPECIFIC ANTIBODIES AND USES THEREOF” (Broadwing Bio, Inc., priority 2022, published 2025).
# Where a chain is given by its changes, count along the chain named.
# B1: ATX-P-433: human anti-ANGPTL7 monoclonal antibody; HCDR1-3 SEQ ID NOs 42, 58, 73; LCDR1-3 SEQ ID NOs 94, 106, 118 (antibody)
# heavy: EVQLVESGGGLVQPGRSLRLSCAASGFTFDDFAMHWVRQGPGKGLEWVSGIGWNSGSIGYADSVKGRFTISRDNAKNSLYLQMNSLRAEDTALYYCAKAPDYGDYYFDYWGQGTLVTVSS
# light: DIQMTQSPSSLSASVGDRVTITCRASQSISIYLNWYQQKPGTAPKLLIYAASSLQSGVPSRFSGSGSGTDFTLTISSLQPEDFAAYYCQQSYTTPLTFGGGTKVEIKRTVAAPSVFIFPPSDEQLKSGTASVVCLLNNFYPREAKVQWKVDNALQSGNSQESVTEQDSKDSTYSLSSTLTLSKADYEKHKVYACEVTHQGLSSPVTKSFNRGEC
# Experiments:
# [1] = biological target: T1, mouse ANGPTL7 protein (muANGPTL7-his, R&D Systems) (Mus musculus, UniProt Q8R1Q3); assay: Octet HTX binding kinetics to muANGPTL7-his; details: muANGPTL7-his @ 200 nM
# T1 construct: His; purchased R&D Systems
# T1 sequence (Q8R1Q3 22-337): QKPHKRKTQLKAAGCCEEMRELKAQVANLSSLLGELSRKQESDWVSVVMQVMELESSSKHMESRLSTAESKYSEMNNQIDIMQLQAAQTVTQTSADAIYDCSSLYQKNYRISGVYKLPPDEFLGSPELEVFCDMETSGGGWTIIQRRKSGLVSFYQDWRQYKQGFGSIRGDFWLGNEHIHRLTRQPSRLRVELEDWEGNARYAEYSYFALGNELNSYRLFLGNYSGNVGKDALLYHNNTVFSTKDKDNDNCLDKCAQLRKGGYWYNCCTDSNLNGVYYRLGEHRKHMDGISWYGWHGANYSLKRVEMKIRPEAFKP
# Description: Experiments were also conducted to determine the reactivity and dissociation constants (KD) of anti-ANGPTL7 antibodies with the mouse ANGPTL7 protein. Binding experiments were performed on Octet HTX (ForteBio) in 1×PBS, pH 7.4, 0.1 mg/mi BSA, 0.05% Sodium Azide, and 0.02% Tween 20. Antibodies at a concentration of 50 nM were loaded on pre-hydrated AHC biosensors for […]. The loaded sensors were dipped into monovalent muANGPTL7-his (R&D Systems) at a concentration of 200 nM for 5 min of association, followed by 10 min of dissociation. Results were analyzed with ForteBio Data Analysis 11.1 and fit to a 1:1 binding model to determine the monovalent KD. Responses (nm) at the end of association were also determined (Table 5).
# [2] = biological target: T2, human ANGPTL7-his protein (P62, huANGPTL7-his) (Homo sapiens, UniProt O43827, L59P/L84P); assay: Octet HTX binding kinetics to P62 (huANGPTL7-his); details: P62 @ 250 nM, 3X dilution
# T2 construct: Additionally, the native signal peptide was removed and replaced with a signal peptide conducive to recombinant expression; made in house; host or cells: human embryonic kidney cells (transient transfection, secreted)
# T2 sequence (O43827 27-346 L59P/L84P): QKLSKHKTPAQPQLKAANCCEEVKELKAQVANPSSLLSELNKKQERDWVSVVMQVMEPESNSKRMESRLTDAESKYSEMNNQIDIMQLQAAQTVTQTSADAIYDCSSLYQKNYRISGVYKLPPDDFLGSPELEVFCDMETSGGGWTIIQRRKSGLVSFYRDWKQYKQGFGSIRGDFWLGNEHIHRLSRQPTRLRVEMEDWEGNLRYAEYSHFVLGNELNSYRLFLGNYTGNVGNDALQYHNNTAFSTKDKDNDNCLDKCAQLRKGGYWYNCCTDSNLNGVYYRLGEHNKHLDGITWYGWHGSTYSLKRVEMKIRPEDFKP
# Description: Experiments were also conducted to determine the reactivity and dissociation constants (KD) of anti-ANGPTL7 antibodies with the human ANGPTL7-his protein. Binding experiments were performed on Octet HTX (ForteBio) in 1×PBS, pH 7.4, 0.1 mg/mi BSA, 0.05% Sodium Azide, and 0.02% Tween 20. To measure monovalent binding kinetics, antibodies at a concentration of 50 nM were loaded on pre-hydrated AHC biosensors for 5 min. The loaded sensors were dipped into monovalent P62 (huANGPTL7-his) at a range of concentration from 0.343-250 nM (a serial 3-fold dilution) for 5 min association, followed by 10 min dissociation. Results were analyzed with ForteBio Data Analysis 11.1 and fit globally to a 1:1 binding model to determine the monovalent KD (Table 3).
# [3] = biological target: T3, human ANGPTL7 multimer protein (Pext-01, huANGTPL7-FLAG multimer) (Homo sapiens, UniProt O43827); assay: Octet HTX binding kinetics to Pext-01 (huANGTPL7-FLAG multimer); details: Pext-01 multimer @ 100 nM
# T3 construct: human wild type ANGPTL7 multimer (PExt-1); purchased Biortus
# T3 sequence (O43827 27-346): T2 sequence (O43827 27-346 L59P/L84P) with P33L, P58L
# Description: Experiments were also conducted to determine the reactivity and dissociation constants (KD) of anti-ANGPTL7 antibodies with the human ANGPTL7 multimer protein. Binding experiments were performed on Octet HTX (ForteBio) in 1×PBS, pH 7.4, 0.1 mg/ml BSA, 0.05% Sodium Azide, and 0.02% Tween 20. Antibodies at a concentration of 50 nM were loaded on pre-hydrated AHC biosensors for 5 mi. The loaded sensors were dipped into Pext-01 (huANGTPL7-FLAG) at a concentration of 100 nM for 5 min of association, followed by 10 min of dissociation. Results were analyzed with ForteBio Data Analysis 11.1 and fit to a 1:1 binding model to determine the apparent KD. Responses (nm) at the end of association were also determined (Table 7).
molecule,measurement,setting,value
B1,Response,[1]; at end of association,0.17 nm
same,KD (M),"[1]; monovalent KD, 1:1 model",P.F./L.R.
same,kdis(1/s),[1],P.F./L.R.
same,kon(1/Ms),[1],P.F./L.R.
same,kdis(1/s) or (koff),[2],0.00056 s⁻¹
same,kon,[2],431000 M⁻¹ s⁻¹
same,kdis(1/s),[3],Slow Koff
same,kon(1/Ms),[3],Low KD
same,KD (M),"[3]; apparent KD, 1:1 model",Low KD
